Reference: PubChem BioAssay AID624296 (National Center for Advancing Translational Sciences (NCATS), 2012)
About 9,900 (2.8%) of roughly 350,000 compounds were called active. Inconclusive means that the source gave no clear call. Such entries were picked first, then a sample of the others. Calls follow the shape of the dose curve; as a rule, active = well fitted activation curve with a large enough effect; inconclusive = small, poorly fitted or top-dose-only effect; inactive = no such curve, though single readings can be large or run the other way. Potencies of inconclusive entries are left out as doubtful fits.
Potency is read from the fitted curve at half-maximal effect; tags tell the direction and shape of the fitted curve.

Assay: A quantitative high throughput screen for small molecules that induce DNA re-replication in MCF 10a normal breast cells. Also: nearly all actives have a fitted effect of over 50% in size. As to activity, positive = re-replication: % of control where 0% means no effect.
Details: MCF 10A DNA re-replication, Hoechst nuclear intensity, 48 h; activity, positive = re-replication: at 46.1 µM (top of the series)
With `CCCCC(CCc1ccccn1)C(=O)c1ccccc1` (stereo unspecified) the Potency was inconclusive [activator, partial curve, poor fit]. For `CC1CN(S(=O)(=O)c2cccc(C(F)(F)F)c2)CC(C)O1` (stereo unspecified), the “activity, positive = re-replication” value was inactive: -0.832%. In the case of `CC1(C(=O)NNC(=O)c2ccc(=O)oc2)CC1Br` (stereo unspecified), the Potency is reported as inconclusive [activator, single point]. For `CCOc1ccc(-c2nc(-c3cccnc3)no2)cc1OCC`, the Potency was inconclusive [activator, partial curve, poor fit]. With `CCn1nnnc1SCC(=O)Nc1nc(-c2cccs2)cs1` the Potency was inconclusive [activator, partial curve, poor fit]. For `Cc1oc(-c2ccccc2F)nc1CS(=O)CC(=O)NC1CCCC1` (stereo unspecified), the “activity, positive = re-replication” value was inactive: -1.88%. With `CSc1nc2ccc3nc(NC(=O)c4ccccc4)sc3c2s1` the Potency was inconclusive [activator, partial curve, poor fit]. With `CC(C)OC(=O)CC(=O)CSc1nc2c(cc1C#N)CCCCC2` the “activity, positive = re-replication” value was inactive: 0.729%. With `CC(C)C[C@H](NC(=O)C1CCN(S(=O)(=O)c2ccccc2)CC1)C(=O)NCc1ccccn1` the “activity, positive = re-replication” value was inactive: 17.3%. With `CN(C)Cc1c(O)ccc2cc(-c3nc4ccccc4n3C)c(=O)oc12` the Potency was active: 5.8 µM. In the case of `CCC(C)NC(=O)CSc1nnc(-c2cc(-c3cccs3)nc3ccccc23)o1` (stereo unspecified), the Potency is reported as inconclusive [activator, single point]. For `Cc1nc(C(F)(F)F)c(C(=O)N/N=C(\N)c2ccccn2)s1`, the Potency was inconclusive [activator, single point]. In the case of `COc1ccc(C2(c3ccc(OC)cc3)NC(=O)N(CC(=O)Nc3cc(C)ccc3OC)C2=O)cc1`, the “activity, positive = re-replication” value is reported as inactive: 3.91%. In the case of `Cc1ccc2c(c1)nnn2C1CCN(S(=O)(=O)c2ccc(C(=O)N(C)C)cc2)CC1`, the “activity, positive = re-replication” value is reported as inactive: 15.2%. For `CSc1ncc(Cl)c(C(=O)Nc2cccc(Cl)c2)n1`, the Potency was inconclusive [activator, single point]. In the case of `O=C(Cn1ncc(Cl)c(Cl)c1=O)N1CCc2ccccc21`, the Potency is reported as active: 10.3 µM. With `COc1ccc(-c2cc(CCCC(=O)NCCc3ccc(OC)cc3OC)no2)cc1` the “activity, positive = re-replication” value was inactive: -2.64%. In the case of `COc1ccc(-c2sc3cc4c(cc3c2-c2ccc(OCCN3CCOCC3)cc2)OCO4)cc1`, the Potency is reported as inconclusive [activator, full curve, poor fit]. With `CCC1Oc2ccccc2N(CC(=O)NCCCN2CCCCC2C)C1=O` (stereo unspecified) the Potency was inconclusive [activator, full curve, poor fit]. For `COc1ccc(OCC(O)CN2CCCCCC2)cc1` (stereo unspecified), the Potency was inconclusive [activator, partial curve, poor fit]. In the case of `Cc1nc2c(-c3ccccc3)c(C)nn2c(C)c1CCC(=O)NC(C)CCc1ccco1` (stereo unspecified), the “activity, positive = re-replication” value is reported as inactive: 12.8%. In the case of `Cn1c(=O)c2c(nc(Br)n2Cc2ccc3ccccc3c2)n(C)c1=O`, the Potency is reported as inconclusive [activator, partial curve, poor fit]. With `COc1ccccc1NC(=O)Nc1nnc(C(C)c2ccccc2)s1` (stereo unspecified) the Potency was active: 23.1 µM. For `FC(F)(F)c1cccc(NC(=S)Nc2cccc(NC(=S)Nc3cccc(C(F)(F)F)c3)n2)c1`, the Potency was inconclusive [activator, single point]. For `COc1ccc(C(=O)/C=C/C(=O)N(CC(=O)NCCC(C)C)Cc2cccs2)c(O)c1`, the “activity, positive = re-replication” value was inactive: -2.04%. For `COc1ccc(NC(=O)C23CC4CC(C2)CC(c2ccccc2)(C4)C3)c(OC)c1`, the Potency was inconclusive [activator, single point]. For `COc1ccc(-c2nc(CCl)cs2)cc1`, the Potency was inconclusive [activator, partial curve, poor fit]. With `CCC(C)NC(=O)COC(=O)c1oc2ccccc2c1CSc1ccc(Cl)cc1` (stereo unspecified) the “activity, positive = re-replication” value was inactive: -0.781%. In the case of `Cc1nc(-c2ccccc2)sc1C(=O)CSc1ccc(Br)cc1`, the Potency is reported as inconclusive [activator, single point]. With `CCCn1c(SCC(=O)Nc2ccccc2C(=O)NC2CC2)n[nH]c1=O` the “activity, positive = re-replication” value was inactive: 3.75%. For `Cc1c(NS(=O)(=O)c2cccc(C(=O)NCc3ccco3)c2)c(=O)n(-c2ccccc2)n1C`, the Potency was inconclusive [activator, full curve, poor fit]. With `Cc1ccc(C)c(-n2cc(CNCCCn3cccn3)c(-c3ccccc3)n2)c1` the Potency was inconclusive [activator, single point]. For `O=C(CCCN1C(=O)/C(=C\c2ccccc2)SC1=S)N1CCOCC1`, the Potency was inconclusive [activator, single point]. With `COc1ccc(C(=O)NC(=S)NCc2ccc(-c3nc4ccccc4o3)cc2)cc1OC` the Potency was inconclusive [activator, single point]. With `O=C(NCCN1CCN(c2cccc(Cl)c2)CC1)c1ccc(CSc2nc3ccncc3[nH]2)cc1` the Potency was active: 18.4 µM. In the case of `COc1ccc(-c2cc(C)no2)cc1S(=O)(=O)Nc1ccccc1`, the Potency is reported as inconclusive [activator, single point]. In the case of `CCCC1=Nc2cc(C(=O)NCc3ccco3)ccc2Sc2ccccc21`, the Potency is reported as active: 8.2 µM. In the case of `CCOC(=O)C1(CC2CC2)CCN(Cc2ccc3cccc(F)c3n2)CC1`, the Potency is reported as inconclusive [activator, single point]. With `O=C(NCC1CCCO1)c1ccc(NC(=O)C2C3C=CC(C3)C2C(=O)O)cc1` (stereo unspecified) the “activity, positive = re-replication” value was inactive: -1.75%. For `COc1ccccc1CNC(=S)Nc1ccc(F)cc1`, the “activity, positive = re-replication” value was inactive: 3.03%. In the case of `Cc1csc(NC(=O)c2c(O)c3c(n(CC(C)C)c2=O)CCCC3)n1`, the Potency is reported as inconclusive [activator, single point]. In the case of `COc1c(Cl)cnn(-c2ccc(Cl)c(Cl)c2)c1=O`, the Potency is reported as active: 23.1 µM. For `COC(=O)C1=C(C)n2nnnc2NC1c1cc2ccccc2o1` (stereo unspecified), the Potency was inconclusive [activator, partial curve, poor fit]. With `Cn1cc(CN(CCCN2CCOCC2)C(=S)Nc2cccc(Cl)c2)c2ccccc21` the Potency was active: 23.1 µM. In the case of `CCC(C(=O)Nc1cccc(S(=O)(=O)N(C)c2ccccc2)c1)c1ccccc1` (stereo unspecified), the Potency is reported as inconclusive [activator, single point]. With `CCOc1ccc(CCNC(=O)CSCC(=O)Nc2cccc(C)c2)cc1OCC` the “activity, positive = re-replication” value was inactive: 3.66%. With `CCC(C)(C)NC(=O)C(c1ccc(OC)cc1)N(Cc1cccs1)C(=O)CCC(=O)Nc1cc(C)on1` (stereo unspecified) the Potency was inconclusive [activator, partial curve, poor fit]. For `CCc1ccccc1NC(=O)CNC(=O)c1cc(C2CC2)nn1-c1ccccc1`, the Potency was inconclusive [activator, full curve, poor fit]. In the case of `O=C(NCc1ccccc1)c1cccc(COc2ccccc2Cl)c1`, the Potency is reported as inconclusive [activator, single point]. With `C=CCNC(=O)c1onc(CSc2cc(C)ccc2C)c1C(=O)O` the Potency was inconclusive [activator, single point]. In the case of `CC(=O)NN1C(=O)c2ccc3c4c(ccc(c24)C1=O)C(=O)N(NC(C)=O)C3=O`, the Potency is reported as inconclusive [activator, single point]. In the case of `CCCCNC(=S)NNC(=O)c1cc(C)on1`, the Potency is reported as inconclusive [activator, partial curve]. In the case of `CSc1ccccc1C(=O)N(C)C(c1ccccc1)c1ccccc1`, the Potency is reported as inconclusive [activator, single point]. For `CCCC(NCC(=O)Nc1ccccc1C(=O)NC1CC1)c1ccccc1` (stereo unspecified), the “activity, positive = re-replication” value was inactive: 8.84%. In the case of `COc1ccc(-c2cc(C(F)(F)F)nc(N3CCN(C)CC3)n2)cc1`, the Potency is reported as inconclusive [activator, full curve]. In the case of `CC1CCCC(NC(=O)COC(=O)c2ccc([N+](=O)[O-])s2)C1C` (stereo unspecified), the Potency is reported as inconclusive [activator, partial curve, poor fit]. For `COc1ccc(NC(=O)N2CCC(Cc3ccccc3)CC2)cc1`, the Potency was inconclusive [activator, single point]. With `O=C(O)CCSc1ccccn1` the “activity, positive = re-replication” value was inactive: -5.61%. For `COc1ccc(C(C(=O)NC2CCCCC2)N(C(=O)CCl)c2ccc(OC)cc2)cc1` (stereo unspecified), the Potency was active: 18.4 µM. For `CCCCCO`, the “activity, positive = re-replication” value was inactive: 2.26%. With `CCC(=O)N1CCN(c2ccc(Cl)cc2NC(=O)c2cccc([N+](=O)[O-])c2)CC1` the Potency was inconclusive [activator, partial curve, poor fit]. For `Cc1sc(NC(=O)CCS(=O)(=O)c2ccccc2)c(C#N)c1C`, the “activity, positive = re-replication” value was inactive: 6.98%. With `CCOC(=O)c1c(C)cc(=O)oc1C` the Potency was inconclusive [activator, partial curve, poor fit]. With `Fc1ccc(Nc2nc(Oc3ccccc3F)nc(N3CCCC3)n2)cc1` the Potency was inconclusive [activator, single point]. For `CC(=Nc1ccccc1)C1=C(O)CSC1=O`, the “activity, positive = re-replication” value was inactive: 9.6%. For `COc1ccc(/C=C(\NC(=O)c2ccccc2)C(=O)NCCN2CCOCC2)cc1`, the Potency was inconclusive [activator, single point]. In the case of `CCOc1cc(-c2sc(Nc3ccccc3)n[n+]2C)ccc1OC`, the “activity, positive = re-replication” value is reported as inactive: 2.76%. With `COC(=O)c1c(S(=O)(=O)N2CCOCC2)c(C)n(C)c1C` the Potency was inconclusive [activator, full curve, poor fit]. For `COc1ccc(-c2cn(-c3ccccc3)c(=S)[nH]2)cc1OC`, the “activity, positive = re-replication” value was inactive: 2.47%. In the case of `CC(C)(C)N(Cc1ccccc1)C(=O)COC(=O)C1CC(=O)N(Cc2ccccc2)C1` (stereo unspecified), the Potency is reported as inconclusive [activator, single point]. For `Cc1cccc(C)c1NC(=O)C(=O)NCC1CCCN1S(=O)(=O)c1ccccc1` (stereo unspecified), the Potency was inconclusive [activator, single point].
